Laboratory results as given in PubChem BioAssay AID504332 (National Center for Advancing Translational Sciences (NCATS), 2011).
The whole screen tested about 350,000 compounds, of which about 31,000 (8.9%) were called active. Inconclusive means that the source gave no clear call. Such entries were picked first, then a sample of the others. The call rests on the fitted dose curve; in most records, active means well fitted inhibition curve with a large enough effect; inconclusive means small, poorly fitted or top-dose-only effect; inactive means no such curve, though single readings can be large or run the other way. Potencies of inconclusive entries are doubtful fits and often do not repeat.

target: Histone-lysine N-methyltransferase EHMT2 (Homo sapiens) (UniProt Q96KQ7); assay: qHTS Assay for Inhibitors of Histone Lysine Methyltransferase G9a; conditions: G9a H3K9 monomethylation, AlphaScreen, 2 h; activity, negative = inhibition: at 59 µM (top of the series) unless noted; further: nearly all actives have a fitted effect of over 75% in size
Outline: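 Using a bead-based AlphaScreen, monomethylated H3K9 product from 2 h room-temperature reactions (G9a 20 nM, peptide 500 nM, SAM 20 uM) was detected with 0.5 ug/mL rabbit anti-H3K9me1 antibody.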
On the % scale 0 is the no-effect control and ±100 the full control effect; potency means the concentration at half of the fitted maximal effect; tags describe the fitted curve by direction and shape.

Sequence of UniProt Q96KQ7 (Q96KQ7 whole entry, looked up): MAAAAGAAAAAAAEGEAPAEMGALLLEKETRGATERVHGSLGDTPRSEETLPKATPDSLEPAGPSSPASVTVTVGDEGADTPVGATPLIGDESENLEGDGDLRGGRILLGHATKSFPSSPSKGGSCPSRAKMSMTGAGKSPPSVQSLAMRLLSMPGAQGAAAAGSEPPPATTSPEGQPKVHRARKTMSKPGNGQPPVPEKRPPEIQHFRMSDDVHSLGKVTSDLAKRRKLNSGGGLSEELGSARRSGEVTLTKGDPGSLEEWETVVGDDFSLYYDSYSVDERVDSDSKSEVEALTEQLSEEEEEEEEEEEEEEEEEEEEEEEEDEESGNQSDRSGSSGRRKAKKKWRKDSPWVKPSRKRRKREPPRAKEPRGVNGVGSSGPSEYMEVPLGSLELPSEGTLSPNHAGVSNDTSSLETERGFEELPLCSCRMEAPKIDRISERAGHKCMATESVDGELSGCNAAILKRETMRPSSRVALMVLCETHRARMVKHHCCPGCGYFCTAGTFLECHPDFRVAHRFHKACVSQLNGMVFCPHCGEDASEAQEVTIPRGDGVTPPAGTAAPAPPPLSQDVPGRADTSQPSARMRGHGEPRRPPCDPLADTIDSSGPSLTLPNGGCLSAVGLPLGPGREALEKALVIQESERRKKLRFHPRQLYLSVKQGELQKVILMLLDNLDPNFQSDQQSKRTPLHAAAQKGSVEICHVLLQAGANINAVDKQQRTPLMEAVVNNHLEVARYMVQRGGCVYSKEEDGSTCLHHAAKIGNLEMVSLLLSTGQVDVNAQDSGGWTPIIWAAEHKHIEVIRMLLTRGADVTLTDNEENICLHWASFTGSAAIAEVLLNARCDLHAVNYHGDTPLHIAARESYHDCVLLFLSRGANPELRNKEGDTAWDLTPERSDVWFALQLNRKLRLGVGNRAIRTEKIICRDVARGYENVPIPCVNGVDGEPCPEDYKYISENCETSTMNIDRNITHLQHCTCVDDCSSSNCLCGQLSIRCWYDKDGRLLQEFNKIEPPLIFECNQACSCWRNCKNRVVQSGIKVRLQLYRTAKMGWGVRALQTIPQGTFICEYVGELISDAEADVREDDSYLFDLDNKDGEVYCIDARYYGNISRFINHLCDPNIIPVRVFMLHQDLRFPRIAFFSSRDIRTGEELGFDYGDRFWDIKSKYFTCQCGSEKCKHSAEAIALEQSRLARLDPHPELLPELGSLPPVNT

SMILES	Potency	activity, negative = inhibition
COc1ccc(Cn2nnnc2C(c2cc3cc(C)ccc3[nH]c2=O)N2CCOCC2)cc1 (stereo not given)	inconclusive: 25.1 µM [inhibitor, single point]	
O=S(=O)(Nc1nc2ccccc2nc1Nc1cccc(S(=O)(=O)N2CCCCC2)c1)c1ccccc1	inconclusive: 0.794 µM [inhibitor, partial curve, poor fit]	
CC(C)CN(CC(C)C)C(=O)CC(=O)NC(=O)c1ccc(Cl)cc1		inactive: -4.99%
O=C(CN1C(=O)NC(Cc2c[nH]c3ccccc23)C1=O)Nc1cccc(S(=O)(=O)N2CCCCCC2)c1 (stereo not given)	inconclusive: 39.8 µM [inhibitor, partial curve, poor fit]	
NS(=O)(=O)c1ccc(N=Cc2c(O)c3ccccc3oc2=O)cc1	inconclusive: 70.8 µM [inhibitor, single point]	
O=C(/C=C/c1ccc(Cl)c([N+](=O)[O-])c1)Nc1ccc(N2CCCC2)cc1	inconclusive: 28.2 µM [inhibitor, single point]	
COc1cccc(CN(Cc2ccco2)c2cnc(S(C)(=O)=O)nc2C(=O)Nc2cccc(Cl)c2C)c1	inconclusive: 10 µM [inhibitor, partial curve, poor fit]	
N#Cc1ccc(CN2CCN(C(=O)CCNS(=O)(=O)c3ccc(F)c(F)c3)CC2)cc1	inconclusive: 1 µM [inhibitor, single point]	
CC1=CC(C)(C)Nc2ccc(OC(=O)CN3C(=O)c4cccc5cccc(c45)C3=O)cc21	active: 8.91 µM	
CCOc1ccc(-n2cc(C(=O)Nc3cccc(OC)c3)c3cc(OC)c(OC)cc3c2=O)cc1	inconclusive: 79.4 µM [inhibitor, partial curve, poor fit]	
CCS(=O)(=O)N1CCC(C(=O)NCCC(C)C)CC1		inactive: 12.4%
CCOC(=O)C1CCN(Cc2cccc(Oc3ccc(Cl)cc3)c2)CC1	inconclusive: 3.16 µM [inhibitor, single point]	
Cc1oc(-c2ccccc2F)nc1CS(=O)(=O)CC(=O)NCCCN1CCc2ccccc2C1	inconclusive: 79.4 µM [inhibitor, single point]	
O=C(Oc1cccc2cccnc12)c1cccc(N2C(=O)C3C4CCC(C4)C3C2=O)c1 (stereo not given)	active: 0.794 µM	
CCOc1cc(C(=O)Nc2cccc(-c3nc4ccccc4o3)c2)cc(OCC)c1OCC		inactive: 11.2%
Cc1ccc(C)c(S(=O)(=O)N2C(=S)NC(=O)C2CC(C)C)c1 (stereo not given)		inconclusive: -61.7% [inhibitor]
COc1ccc(NC(=O)C2C3C=CC4(O3)C2C(=O)N(CCN2CCCCC2)C4C(=O)NC2CCCC(C)C2C)cc1 (stereo not given)		inactive: -17.1% [at 102 µM]
CCc1ccc(CCC(=O)Nc2nnc(C)s2)o1		inactive: -24.6% [at 12.7 µM]
COc1ccccc1-c1nc(NC2CC2)c2ccccc2n1		inactive: 5.05% [at 0.501 µM]
COc1ccc(C2=NN(CN3C(=O)C(=O)c4ccccc43)C(c3ccc(Br)cc3)C2)cc1 (stereo not given)		inconclusive: -58.6% [inhibitor]

SMILES	Potency	activity, negative = inhibition
CCOC(=S)SCC(=O)N1CCc2ccccc2C1C1C(=O)CCCC1=O (stereo not given)	inconclusive: 39.8 µM [inhibitor, single point]	
O=c1[nH]cnc2nc[nH]c12		inactive: -5.2% [at 12.7 µM]
CC1(NC(=O)Cc2ccc(S(=O)(=O)N3CCOCC3)s2)CCS(=O)(=O)C1 (stereo not given)	inconclusive: 89.1 µM [inhibitor, partial curve, poor fit]	
O=C(Nc1nnc(SCc2ccc(F)cc2)s1)C1Cc2ccccc2CN1C(=O)c1ccco1 (stereo not given)	inconclusive: 70.8 µM [inhibitor, single point]	
Cc1cc(S(=O)(=O)Nc2ccc(N3CCOCC3)cc2)ccc1Br	active: 39.8 µM	
CC(=O)NC(CCS(C)(=O)=O)C(=O)Nc1ccccc1Cl (stereo not given)	inconclusive: 15.8 µM [inhibitor, partial curve, poor fit]	
CC(=O)Nc1ccc(S(=O)(=O)NC(C)C(=O)NCCc2ccc(F)cc2)cc1 (stereo not given)	inconclusive: 89.1 µM [inhibitor, partial curve, poor fit]	
CCN(CC)c1ccc(NC(=O)CSc2nnc(C)c(=O)[nH]2)cc1	inconclusive: 7.94 µM [inhibitor, partial curve]	
Cc1cc(C(=O)CN2CCC(C)CC2)c(C)n1-c1ccc(F)cc1	inconclusive: 89.1 µM [inhibitor, single point]	
CC(NCCN(C)C)C(=O)C12CC3CC(CC(C3)C1)C2 (stereo not given)	inconclusive: 56.2 µM [inhibitor, partial curve, poor fit]	
COc1cc(N=C2C(=O)N3CCCc4cccc2c43)cc(OC)c1	inconclusive: 22.4 µM [inhibitor, single point]	
Cc1ccc2cccc(NC(=O)COc3ccccc3[N+](=O)[O-])c2n1	inconclusive: 39.8 µM [inhibitor, partial curve, poor fit]	
Cc1cccc(OCc2ccc(-c3nc(C#N)c(NCCN(C)C)o3)o2)c1	inconclusive: 0.891 µM [inhibitor, full curve, poor fit]	
COc1cc2cc(NC(C)=O)cc(NCc3ccccc3)c2cc1OC	inconclusive: 15.8 µM [inhibitor, single point]	
CN(C)S(=O)(=O)c1cccc(NC(=S)NC(=O)C2CCCCC2)c1	inconclusive: 14.1 µM [inhibitor, partial curve, poor fit]	
CCCN(CC(=O)Nc1ccccc1OC)C(=O)c1ccc(S(=O)(=O)Nc2ccccc2)cc1		inactive: 0.129%
Cc1ccc(CNC(=O)CSc2ccsc2[N+](=O)[O-])cc1	inconclusive: 50.1 µM [inhibitor, partial curve]	
CC(=O)Nc1cccc(S(N)(=O)=O)c1C		inactive: 1.75% [at 102 µM]
Cc1oc2cc3oc(=O)c(CCC(=O)NCc4ccccn4)c(C)c3cc2c1C	inconclusive: 100 µM [inhibitor, single point]	
CCOC(=O)N1CCC(NC(=O)C2CCN(c3ccc(N4CCOCC4)nn3)CC2)CC1	inconclusive: 63.1 µM [inhibitor, partial curve, poor fit]	
